Among all 48,000 compounds or so, about 550 (1.1%) were called active. Roughly 4% stayed inconclusive and do not appear here. Cut-off read from the data, not from the text of the source: active = potency below about 15 µM; inconclusive = mostly about 16 µM to 33 µM; inactive = weaker than that. The list shows a part of the results.
Potency is the fitted concentration of half-maximal effect.

Sequence of UniProt P04062 (P04062 whole entry, looked up): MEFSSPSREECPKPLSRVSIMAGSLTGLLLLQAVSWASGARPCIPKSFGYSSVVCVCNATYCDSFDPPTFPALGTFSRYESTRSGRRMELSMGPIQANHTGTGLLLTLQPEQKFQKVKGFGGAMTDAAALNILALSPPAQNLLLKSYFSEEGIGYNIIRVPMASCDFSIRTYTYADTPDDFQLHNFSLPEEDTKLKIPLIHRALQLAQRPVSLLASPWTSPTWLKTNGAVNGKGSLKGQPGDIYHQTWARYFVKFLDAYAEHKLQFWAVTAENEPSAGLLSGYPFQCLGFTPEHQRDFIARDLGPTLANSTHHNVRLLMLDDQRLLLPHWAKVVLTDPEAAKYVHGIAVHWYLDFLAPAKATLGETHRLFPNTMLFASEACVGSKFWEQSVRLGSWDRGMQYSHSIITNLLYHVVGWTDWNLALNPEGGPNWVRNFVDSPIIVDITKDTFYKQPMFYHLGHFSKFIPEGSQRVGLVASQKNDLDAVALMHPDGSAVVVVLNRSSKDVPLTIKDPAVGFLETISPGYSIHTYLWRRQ

The target of the assay is Lysosomal acid glucosylceramidase (Homo sapiens) (UniProt P04062). In words: Glucocerebrosidase.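 Note: the screen sought inhibitors.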 The settings on record: purified enzyme, resorufin glucoside fluorescence (screen aimed at inhibitors), 20 min; series mostly up to 77 µM. The gist of the method:
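Normal human glucocerebrosidase (0.2 nM final) was assayed with resorufin β-D-glucopyranoside (30 uM final) in 50mM citric acid/KH2PO4, 10mM sodium taurocholate, 0.01% tween-20, pH 5.9. Compounds were titrated; fluorescence (Ex 548, Em 600) read after 20 min at RT.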
Turning to `CCOc1ccccc1OCCCC(=O)Nc1ccc(OC)nc1`, the Potency was inactive: > 76.9 µM. The figure for `O=C(NCc1ccc2c(c1)OCO2)c1cccs1` is inactive: > 76.9 µM. For the compound `COCC(=O)N(Cc1ccc(OC)cc1)Cc1nc2ccccc2c(=O)[nH]1`, the Potency is inactive: > 76.9 µM.

As to `CCN(CC)CCOc1cc2c(nn1)Oc1ccccc1N2C`, the Potency was inactive: > 76.9 µM. The figure for `COc1ccccc1C1N(c2ccc(F)cc2)C(=O)C2CCCN21` (configuration not stated) is inactive: > 76.9 µM; for `CCc1sc(NC(=O)CN2CCOCC2)nc1-c1ccccc1` it is inactive: > 76.9 µM; for `CCOC(=O)Cn1cnc2c(nnn2-c2ccc(C)cc2)c1=O` it is inactive: > 76.9 µM. The figure for `COc1ccc(-c2nnc(N(C)C(=O)c3cccnc3)s2)cc1` is inactive: > 76.9 µM; for `COc1ccc(NC(=O)c2cc(OC)c(OC)cc2OC)c(S(=O)(=O)N2CCOCC2)c1` it is inactive: > 76.9 µM. The figure for `CCOC(=O)c1[nH]c(C)c(C(=O)NCCCOC(C)C)c1C` is inactive: > 76.9 µM; for `COCCn1nnnc1C(c1ccc2ncccc2c1)N1CCc2ccccc21` (configuration not stated) it is inactive: > 76.9 µM; for `O=C(CCN1C(=O)c2ccccc2S1(=O)=O)Nc1ccc2c(c1)OCCO2` it is inactive: > 76.9 µM. Take `CCOC(=O)C1CCN(C(=O)C2CCN(S(=O)(=O)N3CCCC3)CC2)CC1`: the Potency was inactive: > 76.9 µM. In the case of `c1cc(C(c2nnnn2C2CCCC2)N2CCOCC2)ccn1` (configuration not stated), the Potency was inactive: > 76.9 µM. The figure for `C=CCn1nnnc1SCC(=O)Nc1cccc(OC)c1` is inactive: > 76.9 µM.

In the case of `CCCn1c(=O)c2ccccc2n2c(SCCOc3ccc(OC)cc3)nnc12`, the Potency was inactive: > 76.9 µM.

On to `COc1cccc(NC(=O)N2CCCC2C(=O)NCC(C)C)c1` (configuration not stated), for which the Potency is inactive: > 76.9 µM.

As for `CCn1c(=O)cc(OCC(=O)NCc2cccnc2)c2ccccc21`, the Potency was inactive: > 76.9 µM. The figure for `CC(C)(C)C1=C[C@@H](CO)C[C@@H](CO)C1` is inactive: > 76.9 µM; for `Cc1ccc(CNC(=O)CSc2nc(C)cc(C)c2C#N)cc1` it is inactive: > 76.9 µM. The figure for `CCC(O)CNc1nc(-n2nc(C)cc2C)nc2sc3c(c12)CCCC3` (configuration not stated) is inactive: > 76.9 µM; for `COC(=O)C(NS(C)(=O)=O)(c1c(C)[nH]c2ccccc12)C(F)(F)F` (configuration not stated) it is inactive: > 76.9 µM; for `O=C(NCc1cccs1)c1ccc(Cl)s1` it is inactive: > 76.9 µM.

Regarding `CN(C)c1ccc(-n2cc3c(=O)n(C)c(=O)n(C)c3c2)cc1`, the Potency is inactive: > 76.9 µM.

Regarding `CCN(CC)C(=O)CSc1nnc(-c2cc(OC)cc(OC)c2)o1`, the Potency was inactive: > 76.9 µM. The entry for `Cn1c(C(C#N)C2=C(Cl)C(=O)N(c3ccccc3)C2=O)nc2ccccc21` (configuration not stated) is “inactive”; for `CN1CCN(CCCNC(=O)Nc2cccc3ccccc23)CC1` it is inactive: > 76.9 µM.

Take `Cc1cc(NC(=O)C(C)C)ncc1NC(=O)Cc1ccccc1`: the Potency was inactive: > 76.9 µM. The figure for `Nc1nc(-c2cccnc2)nn1C(=O)Cc1ccccc1` is inactive: > 76.9 µM.

For the compound `Cc1nc(NCC2CCCO2)c2nnn(Cc3ccccc3Cl)c2n1` (configuration not stated), the Potency is inactive: > 76.9 µM.

`CCn1cc(C(=O)NCCCN2CCC(C)CC2)c(=O)c2cc(S(=O)(=O)N3CCCC3)ccc21`: the Potency is inactive: > 76.9 µM. On to `Cn1c(=O)cc(SCC(=O)NCCCN2CCOCC2)c2ccc(Cl)cc21`, for which the Potency is inactive: > 76.9 µM. The figure for `CCOC(=O)c1cc(OC(=O)c2cccs2)n(-c2ccccc2)n1` is inactive: > 76.9 µM. `CCOC(=O)c1oc2nc(C(C)C)c3c(c2c1N)CC(C)(C)OC3`: the Potency was inactive: > 76.9 µM. On to `CSc1nsc(SCC(=O)N2CCc3ccccc32)n1`, for which the Potency was inactive: > 76.9 µM. The figure for `COc1ccc2[nH]c(=S)[nH]c2c1` is inactive: > 76.9 µM; for `O=C(NCc1ccccn1)c1c(O)c2c([nH]c1=O)CCCC2` it is inactive: > 76.9 µM. The figure for `CCn1cc(Br)c(C(=O)Nc2cccc(SC)c2)n1` is inactive: > 76.9 µM; for `CCOC(=O)N1CCN(S(=O)(=O)c2ccc(OCC(=O)OC)cc2)CC1` it is inactive: > 76.9 µM. The figure for `O=C(Nc1ccccc1)N1CCC(c2nc(-c3ccc(S(=O)(=O)N4CCOCC4)cc3)no2)CC1` is inactive: > 76.9 µM.

Turning to `CN(CC(=O)O)S(=O)(=O)c1cc(Cl)ccc1Cl`, the Potency was inactive: > 76.9 µM.

As to `Cc1ccccc1NC(=O)N1C2CCCC1CC(NC(=O)C(C)(C)C)C2` (configuration not stated), the Potency was inactive: > 76.9 µM.

On to `COC(=O)CNc1n[nH]c(=S)[nH]c1=O`, for which the Potency was inactive: > 76.9 µM. The figure for `CCOC(=O)c1cnc(SCC(=O)c2ccc3c(c2)OCCO3)nc1N` is inactive: > 76.9 µM; for `O=C(CN1C(=O)C2C3C=CC(C3)C2C1=O)N1CC=C(c2ccccc2)CC1` (configuration not stated) it is inactive: > 76.9 µM.

Turning to `O=C1CCCN1c1ccc(CNS(=O)(=O)c2ccc(F)cc2)cc1`, the Potency was inactive: > 76.9 µM. In the case of `Fc1ccccc1N1CCN(Cc2nc(-c3ccc(Cl)cc3Cl)no2)CC1`, the Potency is inactive: > 76.9 µM.

In the case of `CCCCN(CC)Cc1c(C)[nH]c2ccccc2c1=O`, the Potency is inactive: > 76.9 µM. The figure for `CCCOc1ccc2c(C)c(CC(=O)OC)c(=O)oc2c1` is inactive: > 76.9 µM; for `CC1CC(C)CN(CCCNC(=O)C2CCC(=O)N2C2CCCC2)C1` (configuration not stated) it is inactive: > 76.9 µM; for `O=C1CCC(C(=O)N(c2ccccc2)C2(C(=O)NC3CCCCC3)CCCCC2)N1` (configuration not stated) it is inactive: > 76.9 µM. The figure for `CCN1CCN(C(c2cccs2)C(C)NC(=O)c2c(F)cccc2F)CC1` (configuration not stated) is inactive: > 76.9 µM; for `CCOC(=O)C(NC(=O)Nc1ccccc1)(OCC)C(F)(F)F` (configuration not stated) it is inactive: > 76.9 µM; for `Cc1noc(C)c1CSc1nnc(-c2c[nH]c3ccccc23)n1-c1ccc(Cl)cc1` it is inactive: > 76.9 µM. For the compound `COc1cccc(NC(=O)N2CCCC2C(=O)NC(C)C)c1` (configuration not stated), the Potency was inactive: > 76.9 µM. The figure for `CCCS(=O)(=O)N1CCC(C(=O)NC2CCC(C)CC2)CC1` (configuration not stated) is inactive: > 76.9 µM; for `Cc1ccc(CCNC(=O)CN2C(=O)COc3ccccc32)cc1` it is inactive: > 76.9 µM. The figure for `COc1ccc(S(=O)(=O)NCCc2ccc(F)cc2)cc1` is inactive: > 76.9 µM; for `CN(C)c1ccc(CN(C(=O)c2ccco2)C2CCS(=O)(=O)C2)cc1` (configuration not stated) it is inactive: > 76.9 µM; for `CC1CN(c2nc3c(c(=O)n(C)c(=O)n3C)n2Cc2c(F)cccc2Cl)CC(C)O1` (configuration not stated) it is inactive: > 76.9 µM. The figure for `COc1cccc(C(=O)CN2C(=O)C(C)(C)Oc3ccc(C(=O)N4CCCCCC4)cc32)c1` is inactive: > 76.9 µM; for `COCCNc1nnc(SCC(=O)N2CCN(S(=O)(=O)c3ccccc3)CC2)s1` it is inactive: > 76.9 µM. Regarding `O=c1[nH]c(=S)c2c(n1-c1ccccc1)CCC2`, the Potency is inactive: > 76.9 µM. On to `Cc1cc(C)n(Cc2cccc(F)c2)c(=O)c1C#N`, for which the Potency is inactive: > 76.9 µM. The figure for `CS(=O)(=O)Nc1ccc(S(=O)(=O)NCCc2ccccc2)cc1` is inactive: > 76.9 µM. In the case of `CCC(=O)Nc1cccc(NC(=O)CSc2nnnn2C)c1`, the Potency was inactive: > 76.9 µM.

With `O=C(Nc1cccnc1)c1ccc2snnc2c1`, the Potency was inactive: > 76.9 µM. The figure for `CCc1nnc(NC(=O)CSc2nnc(-c3ccc(O)cc3)n2-c2ccccc2)s1` is inactive: > 76.9 µM; for `CCOC(=O)N1CCN(S(=O)(=O)c2ccc(C(=O)Nc3nc4c(s3)CC(C)CC4)cc2)CC1` (configuration not stated) it is inactive: > 76.9 µM.

As for `O=c1c2c3nc4ccccc4nc3n(-c3cccc(F)c3)c2ncn1Cc1ccc2c(c1)OCO2`, the Potency is inactive: > 76.9 µM. Regarding `COc1ccc(-c2nnc(SC(C)C#N)o2)cc1` (configuration not stated), the Potency was inactive: > 76.9 µM. The figure for `Fc1ccc(-c2nnn(Cc3nc4ccccc4s3)n2)cc1` is inactive: > 76.9 µM; for `CCOC(=O)N1CCC(NC(=O)CCC(=O)N2CCOc3ccccc32)CC1` it is inactive: > 76.9 µM; for `CCOc1ccc(-c2cn(S(=O)(=O)c3cccc4nsnc34)nc2N)cc1` it is inactive: > 76.9 µM. `N#CCSc1nnc(-c2ccccc2O)n1CCc1ccccc1`: the Potency was inactive: > 76.9 µM. For `O=C(Cn1nnc2ccccc21)NC1CCCCC1`, the Potency was inactive: > 76.9 µM. The figure for `c1ccc(-c2nnc(-c3ccco3)o2)cc1` is inactive: > 76.9 µM. The figure for `Cc1nc2cc(C(=O)O)ccc2s1` is inactive: > 76.9 µM; for `O=c1[nH]c(CN2CCN(c3ccccc3)CC2)nc2ccccc12` it is inactive: > 76.9 µM; for `O=C(NC1CCCCC1)C(c1ccccc1)N1CCCC1` (configuration not stated) it is inactive: > 76.9 µM.

Consider `CCOC(=O)Cc1nnc(NC(=O)c2ccco2)s1`, for which the Potency is inactive: > 76.9 µM. The figure for `O=C(CCCCCN1C(=O)c2ccccc2C1=O)Nc1nccs1` is inactive: > 76.9 µM. As for `O=C(c1cc(-c2ccco2)on1)N1CCOCC1`, the Potency was inactive: > 76.9 µM. Regarding `COc1ccc(-c2nnc3ccc(SCC(=O)N4CCN(c5ccccc5)CC4)nn23)cc1OC`, the Potency is inactive: > 76.9 µM. The figure for `O=S(=O)(NCC1CCCO1)c1ccc(Br)s1` (configuration not stated) is inactive: > 76.9 µM. The figure for `CC(NC(=O)Cn1nc(C(=O)O)c2ccccc2c1=O)c1ccccc1` (configuration not stated) is inactive: > 76.9 µM. The figure for `Cc1nnc2sc(-c3ccc(NC(=O)c4ccc(-c5ccc(Cl)cc5Cl)o4)cc3)nn12` is inactive: > 76.9 µM; for `COc1ccc(S(=O)(=O)N(C)CC(=O)NCc2cccnc2)cc1C` it is inactive: > 76.9 µM; for `CCCCn1c(=O)cc(O)c2ccccc21` it is inactive: > 76.9 µM.

For the compound `C=CCn1c(SCC(=O)O)nnc1-c1ccc(C(C)(C)C)cc1`, the Potency is inactive: > 76.9 µM. In the case of `C#CC(C)(CC)NC(=O)c1cc(OC)c(OC)c(OC)c1` (configuration not stated), the Potency was inactive: > 76.9 µM. The figure for `CNC(=O)CN(c1ccc(OC)cc1)S(=O)(=O)c1ccc(F)cc1` is inactive: > 76.9 µM.
